Among the data in the antibiotic and cytotoxicity screens of Wong et al. (2023) are cytotoxicity call and growth inhibition call values, retold here.

The other results are listed elsewhere or left out.

In assay [1] the test system is HSkMC (human skeletal muscle cells). Kind of assay: cytotoxicity call (relative viability < 0.9). Conditions: 10 µM.
In assay [2] the test system is HepG2. Put plainly: cytotoxicity call (relative viability < 0.9). Conditions: 10 µM.
Assay [3] concerns S. aureus RN4220. Put plainly: growth inhibition call (relative growth <= 0.2). The following applies: 50 µM.

Turning to `CC[C@@H](O[Si](C#C[Si](C(C)C)(C(C)C)C(C)C)(C(C)C)C(C)C)c1cn([C@H](CO)Cc2ccccc2)nn1`, the cytotoxicity call in assay [1] and in assay [2] was “inactive” throughout. Besides, the growth inhibition call in assay [3] is “inactive”.

As to `C[C@@H]1CN([C@@H](C)CO)C(=O)c2cc(NC(=O)Cc3ccccc3)ccc2O[C@@H](C)CCCCO[C@@H]1CN(C)S(=O)(=O)c1cccs1`, the cytotoxicity call in assay [1] and in assay [2] was “inactive” each time. In assay [3], the growth inhibition call was “inactive”.

Regarding `COCCOC(=O)N1C(=O)[C@@]2(c3cc(C#CCCO)ccc31)[C@H](c1ccc(O)cc1)N1[C@H](c3ccccc3)[C@H](c3ccccc3)OC(=O)[C@H]1[C@@H]2C(=O)NC[C@H](O)c1ccccc1`, the cytotoxicity call in assay [1] and in assay [2] was “inactive” in each case. Further, in assay [3], the growth inhibition call is “inactive”.

Turning to `C[C@H]1CCCCO[C@H](CN(C)C(=O)Nc2ccc(C(F)(F)F)cc2)[C@@H](C)CN([C@@H](C)CO)C(=O)c2cc(NS(=O)(=O)c3cccs3)ccc2O1`, the cytotoxicity call in assay [1] and in assay [2] was “inactive” each time. For the same compound, the growth inhibition call in assay [3] was “inactive”.

Take `C[C@@H]1CN([C@H](C)CO)C(=O)c2cc(NC(=O)CCC(F)(F)F)ccc2O[C@@H]1CN(C)Cc1ccc(-c2ccccc2)cc1`: the cytotoxicity call in assay [1] and in assay [2] was “inactive” in each case. The growth inhibition call in assay [3] is “inactive”.

Take `C[C@H]1CN([C@@H](C)CO)C(=O)CCCn2nncc2CO[C@@H]1CN(C)S(=O)(=O)c1ccc(Oc2ccccc2)cc1`: the cytotoxicity call in assay [1] and in assay [2] was “inactive” each time. Also, the growth inhibition call in assay [3] is “inactive”.

`COc1cccc(C#Cc2cnc3c(c2)C(=O)N([C@@H](C)CO)C[C@@H](C)[C@@H](CN(C)C(=O)C2CCC2)O3)c1`: the cytotoxicity call in assay [1] and in assay [2] was “inactive” each time. Moreover, the growth inhibition call in assay [3] is “inactive”.

Turning to `CC(C)NC(=O)Nc1cccc2c1O[C@H](CN(C)Cc1ccc(Oc3ccccc3)cc1)[C@@H](C)CN([C@H](C)CO)C2=O`, the cytotoxicity call in assay [1] and in assay [2] was “inactive” each time. In addition, in assay [3], the growth inhibition call is “inactive”.

For `COc1ccc(C#Cc2ccc3c(c2)O[C@H](CN(C)C(=O)CN2CCOCC2)[C@H](C)CN([C@H](C)CO)S3(=O)=O)cc1`, the cytotoxicity call in assay [1] and in assay [2] was “inactive” in each case. Further, the growth inhibition call in assay [3] was “inactive”.

Take `COc1ccc(NC(=O)N2C[C@H](O)COC[C@H]3O[C@H](CC(=O)NCc4ccccc4OC)CC[C@@H]32)cc1`: the cytotoxicity call in assay [1] and in assay [2] was “inactive” in each case. Besides, the growth inhibition call in assay [3] was “inactive”.

Take `CO[C@@H](CN(C)S(=O)(=O)c1cn(C)cn1)[C@H](C)CN(C(=O)Nc1ccc(C(F)(F)F)cc1)[C@@H](C)CO`: the cytotoxicity call in assay [1] and in assay [2] was “inactive” throughout. Also, the growth inhibition call in assay [3] was “active”.

With `Cc1cc(NN)nc(SCC(=O)NN)n1`, the cytotoxicity call in assay [1] and in assay [2] was “inactive” throughout. In assay [3], the growth inhibition call is “inactive”.

For `COc1ccc(S(=O)(=O)N(C)C[C@@H]2Oc3cc(C#CC4CC4)ccc3S(=O)(=O)N([C@H](C)CO)C[C@@H]2C)cc1`, the cytotoxicity call in assay [1] and in assay [2] was “inactive” throughout. Further, the growth inhibition call in assay [3] is “inactive”.

With `C[C@@H]1CN([C@@H](C)CO)C(=O)c2cc(NC(=O)CCCCCC(=O)Nc3ccccc3N)ccc2O[C@@H]1CN(C)C(=O)Nc1ccc(F)cc1`, the cytotoxicity call in assay [1] and in assay [2] was “inactive” throughout. The growth inhibition call in assay [3] was “inactive”.

Take `COCCN1CCO[C@H]2CN(S(=O)(=O)c3cn(C)cn3)CC[C@@H]2C1`: the cytotoxicity call in assay [1] and in assay [2] was “inactive” each time. In addition, the growth inhibition call in assay [3] was “inactive”.

`COc1ccc([Si](C)(C)[C@H]2[C@H](CCO)O[C@@]3(C(=O)N(Cc4ccccc4)c4ccc(N(C=O)c5ccccc5)cc43)[C@@H]2C)cc1`: the cytotoxicity call in assay [1] was “inactive”. For the same compound, the cytotoxicity call in assay [2] was “active”. Also, the growth inhibition call in assay [3] is “inactive”.

Regarding `NCCNC(=O)c1nc(-c2ccc(Br)o2)no1`, the cytotoxicity call in assay [1] and in assay [2] was “inactive” throughout. Besides, in assay [3], the growth inhibition call was “inactive”.

As to `COc1ccc(NC(=O)Nc2cccc3c2O[C@@H](CN(C)C(=O)Nc2cccc4ccccc24)[C@H](C)CN([C@@H](C)CO)C3=O)cc1`, the cytotoxicity call in assay [1] and in assay [2] was “inactive” throughout. Also, the growth inhibition call in assay [3] was “inactive”.

Turning to `C[C@H](CO)N1C[C@H](C)[C@@H](CN(C)Cc2ccc(Cl)c(Cl)c2)Oc2ccc(NC(=O)CCC(F)(F)F)cc2CC1=O`, the cytotoxicity call in assay [1] and in assay [2] was “inactive” in each case. In assay [3], the growth inhibition call is “inactive”.

For `C[C@@H]1CN([C@H](C)CO)C(=O)c2cc(NC(=O)Nc3ccc(F)cc3)ccc2O[C@@H](C)CCCCO[C@@H]1CN(C)Cc1ccc2c(c1)OCO2`, the cytotoxicity call in assay [1] and in assay [2] was “inactive” each time. Moreover, the growth inhibition call in assay [3] was “inactive”.

For `C[C@H]1CN([C@@H](C)CO)C(=O)Cc2cc(NC(=O)CCCCCC(=O)Nc3ccccc3N)ccc2O[C@H]1CN(C)C(=O)Nc1ccc(F)cc1`, the cytotoxicity call in assay [1] and in assay [2] was “inactive” each time. In assay [3], the growth inhibition call was “inactive”.

As for `C[C@H]1CN([C@@H](C)CO)C(=O)c2cc(NC(=O)CCC(F)(F)F)ccc2O[C@H]1CN(C)Cc1ccc(C(=O)Nc2ccccc2N)cc1`, the cytotoxicity call in assay [1] and in assay [2] was “inactive” throughout. In assay [3], the growth inhibition call is “inactive”.

As for `Cc1noc(C)c1NC(=O)Nc1ccc2c(c1)CC(=O)N([C@H](C)CO)C[C@@H](C)[C@H](CN(C)Cc1ccc(Cl)c(Cl)c1)O2`, the cytotoxicity call in assay [1] and in assay [2] was “inactive” in each case. Further, the growth inhibition call in assay [3] is “inactive”.

As for `O=C(C[C@H]1CC[C@@H](NC(=O)C2CC2)[C@H](CO)O1)NCCCN1CCOCC1`, the cytotoxicity call in assay [1] and in assay [2] was “inactive” each time. The growth inhibition call in assay [3] is “inactive”.

For `CC(C)CC#Cc1ccc2c(c1)O[C@H](CN(C)C(=O)Cc1ccncc1)[C@@H](C)CN([C@@H](C)CO)S2(=O)=O`, the cytotoxicity call in assay [1] and in assay [2] was “inactive” in each case. The growth inhibition call in assay [3] was “inactive”.

In the case of `CC(C)C#Cc1ccc2c(c1)O[C@@H](CN(C)C(=O)c1cccc(F)c1)[C@@H](C)CN([C@H](C)CO)S2(=O)=O`, the cytotoxicity call in assay [1] and in assay [2] was “inactive” in each case. In addition, in assay [3], the growth inhibition call was “inactive”.

`Cc1ccc(F)cc1NC(=O)CN`: the cytotoxicity call in assay [1] and in assay [2] was “inactive” each time. Moreover, the growth inhibition call in assay [3] is “inactive”.

With `COc1ccc(CNC(=S)NN)cc1`, the cytotoxicity call in assay [1] and in assay [2] was “inactive” throughout. For the same compound, in assay [3], the growth inhibition call was “inactive”.

Consider `C[C@H](CO)N1C[C@H](C)[C@H](CN(C)C(=O)c2cnccn2)Oc2cc(C3=CCCC3)ccc2S1(=O)=O`, for which the cytotoxicity call in assay [1] and in assay [2] was “inactive” throughout. The growth inhibition call in assay [3] was “inactive”.

Turning to `COCC#Cc1ccc2c(c1)O[C@@H](CN(C)C(=O)C1CCOCC1)[C@@H](C)CN([C@@H](C)CO)S2(=O)=O`, the cytotoxicity call in assay [1] and in assay [2] was “inactive” each time. In assay [3], the growth inhibition call is “inactive”.
